Results taken from PubChem BioAssay AID1347073 (National Center for Advancing Translational Sciences (NCATS), 2019).
Screen size: about 45,000 compounds; about 200 (0.44%) were called active. Another 7% or so got no clear call; they are omitted. Calls come from the whole dose curve; as a rule, active = well fitted activation curve with a large enough effect; inconclusive = small, poorly fitted or top-dose-only effect; inactive = no such curve, though single readings can be large or run the other way. This is one part of the list.

test: qHTS of TDP-43 Inhibitors: NCGC Sytravon Library Screen; conditions: yeast TDP-43 toxicity rescue, BacTiter-Glo growth, 24 h; series mostly up to 46.1 µM; growth rescue (activation): at the top concentration; note: 0% is about no effect; nearly all actives have a fitted effect of over 55% in size
Outline: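 TDP-43-expressing yeast, pregrown in raffinose, seeded at OD600 0.02 in galactose medium with compound for 24 hr at 30 deg C. Growth read by BacTiter-Glo luminescence, so rescue of toxicity appears as activation.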

SMILES | growth rescue (activation) | Potency
CCS(=O)(=O)N1CCN(S(=O)(=O)c2ccc3c(c2)OCCO3)CC1 | inactive: -13.5% | –
COc1ccc(N(CC(=O)Nc2ccccc2C(=O)N2CCOCC2)S(=O)(=O)c2ccc(F)cc2)cc1 | inactive: 15.5% | –
CCn1c2ccccc2c2nnc(SCC(=O)NC3CCS(=O)(=O)C3)nc21 (stereo not drawn) | inactive: 7.97% | –
O=C1NC(=O)C2(CCC(C(=O)O)C2)N1 (stereo not drawn) | inactive: 5.82% | –
O=C(Nc1ccc(SC(F)(F)F)cc1)c1ccccn1 | inactive: 19.4% | –
Cc1ccc(S(=O)(=O)NCC(C)n2nc(C)nc2C)cc1 (stereo not drawn) | inactive: 7.08% | –
CN(C)c1ccc(CNc2ccccn2)cc1 | inactive: -5.83% | –
CC1CN(C)C(C)C/C1=N/Oc1ccccc1[N+](=O)[O-] (stereo not drawn) | inactive: 5.75% | –
Cc1cc2cc(CN(Cc3cccs3)C(=S)NCC3CCCO3)c(=O)[nH]c2cc1C (stereo not drawn) | inactive: 13.5% | –
Nc1ccc(S(=O)(=O)O)cn1 | – | inactive
CC1(C(=O)NS(=O)(=O)c2ccc(Cl)cc2)CCN1C(=O)C1CC1 (stereo not drawn) | inactive: 3.71% | –
CC(=O)Nc1ccc(SCC(=O)N(C)CC(=O)Nc2ccccc2Cl)cc1 | inactive: -6.68% | –
CCCCNS(=O)(=O)c1ccc(C)c(-c2nnc3c4ccccc4c(C)nn23)c1 | inactive: 8.58% | –
O=C(NN=C1CCCC1)c1ccccc1OCc1ccc(Cl)cc1 | inactive: 11.1% | –
Cc1cc(C)cc(OCC(=O)N2N=C(c3cccnc3)CC2(O)C(F)(F)F)c1 (stereo not drawn) | inactive: 25.7% | –
CCN(CC)c1ncnc2c1ncn2[C@H]1CN(Cc2cc(OC)c(OC)c(OC)c2)C[C@@H](CO)O1 | inactive: 10.2% | –
COc1ccc(/C=N/N=C2/CC(C)(C)Cc3n[nH]c(=O)cc32)cc1 | inactive: -0.388% | –
COc1ccc(-n2c(-c3ccc(Cl)cc3Cl)n[nH]c2=S)c(OC)c1 | inactive: 16.1% | –
O=C(CN1CCCC1)NCC(=O)Nc1ccc(F)cc1 | inactive: 10.5% | –
O=C(O)CCN1CC2([N+](=O)[O-])C=CC(=O)C([N+](=O)[O-])(C1)C2CC(=O)c1ccccc1 (stereo not drawn) | inactive: 27.9% | –
CC(=O)c1ccc(C(=O)N(C)C2CCCN(Cc3ccccc3F)C2)s1 (stereo not drawn) | inactive: 0.139% | –
CN(C(=O)CO/N=C/c1ccc(OC(F)F)cc1)C1CCS(=O)(=O)C1 (stereo not drawn) | inactive: -3.26% | –

SMILES | growth rescue (activation) | Potency
Cc1ccc2cc(NC(=O)C3(C)CCN3CC(C)C)ccc2n1 (stereo not drawn) | inactive: 2.87% | –
CC(OC(=O)c1cccs1)C(=O)NCCc1ccccc1 (stereo not drawn) | inactive: 2.58% | –
O=C(N/N=C/c1ccc2cccnc2c1)c1nc2ccccc2c(=O)[nH]1 | inactive: -4.09% | –
COc1cc(NC(=O)C2(C)CCN2C(C)C)cc(OC)c1OC (stereo not drawn) | inactive: 7.19% | –
CC1CCN(C(=O)c2cc3c(=O)n4ccccc4nc3s2)CC1 | inactive: 17.7% | –
O=c1nc(Nc2ccc(OCc3ccccc3)cc2)sc2ncccc12 | inactive: -41% | –
O=C1c2ccccc2CC1Sc1nnc(-c2ccccn2)o1 (stereo not drawn) | inactive: 9.18% | –
COc1ccc(/C=C(\NC(=O)c2ccco2)C(=O)NC(Cc2ccccc2)C(=O)O)cc1 (stereo not drawn) | inactive: 13.7% | –
CCNc1nc2c(c(=O)n(Cc3ccccc3)c(=O)n2C)n1Cc1ccccc1 | inactive: 32.3% | –
CCN(CC)c1cc(NCCO)c([N+](=O)[O-])c2nonc12 | inactive: 9.04% | –
O=C(CNC(=O)c1cccc(F)c1)OCC(=O)N1CCN(C(=O)c2ccco2)CC1 | inactive: 6.13% | –
COCCNC(=O)/C(C#N)=C/c1ccc(SC)cc1 | inactive: -21% | –
Cc1ccc(S(=O)(=O)c2nc(-c3ccco3)oc2SCC(N)=O)cc1 | inactive: 7.88% | –
O=C1C=C(N2CCOCC2)C2(CCCCC2)O1 | inactive: 3.2% | –
COc1ccc(CC(N)c2csc(Nc3ccccn3)n2)cc1 (stereo not drawn) | inactive: 1.32% | –
c1ccc2c(c1)CCN(c1nc(CN3CCOCC3)nc3sc4c(c13)CCCC4)C2 | inactive: 14.2% | –
O=c1[nH]c(C2CCCN(S(=O)(=O)c3ccc(F)cc3)C2)nc2c1nnn2Cc1ccc(F)cc1 (stereo not drawn) | inactive: -10.1% | –
NC(=S)N=Nc1c(O)[nH]c2c(Br)cc(Br)cc12 | inactive: -11.4% | –
O=C(CCn1cccn1)N1CCCC(N2CCN(c3cccc(Cl)c3)CC2)C1 (stereo not drawn) | inactive: 9.33% | –
COc1ccc2c(CC(=O)NNC(=O)c3cccs3)coc2c1 | inactive: 35.1% | –
N#Cc1ccc(COC(=O)C2CC(=O)N(CCc3ccccc3)C2)cc1 (stereo not drawn) | inactive: 6.86% | –
CCCn1nnnc1SCC(=O)N1C(C)CCCC1C (stereo not drawn) | inactive: -4.83% | –

SMILES | growth rescue (activation) | Potency
O=C(/C=C/c1ccccc1[N+](=O)[O-])NCc1ccc(Cl)cc1 | inactive: 15.2% | –
CCN(CC)c1ccc(/C=C2/C(=O)c3ccc(C(=O)O)cc3C2=O)cc1 | inactive: -0.263% | –
Cc1csc(NC(=O)CN2C(=O)COc3ccc(Cl)cc32)n1 | inactive: 8.78% | –
Cc1cccc(C(=O)NCCN2CCOCC2)c1[N+](=O)[O-] | inactive: -0.384% | –
COc1ccc(S(=O)(=O)N2CCOCC2)cc1NC(=O)CN1C(=O)NC2(CCCCC2C)C1=O (stereo not drawn) | inactive: 4.77% | –
O=c1[nH][nH]c(=O)n1-c1ccccc1 | inactive: 15.4% | –
COc1ccccc1/C=C1\SC(=S)N(CCC(=O)Nc2nnc(C)s2)C1=O | inactive: -21.7% | –
COc1ccc(C(=O)n2nc(-c3ccco3)nc2SC)cc1OC | inactive: -15.3% | –
COc1ccc(N2C(=O)CSC2c2ccc(F)cc2)cc1 (stereo not drawn) | inactive: 6.77% | –
Cc1cc(C)cc(OCC(O)CN2CCN(Cc3ccc4c(c3)OCO4)CC2)c1 (stereo not drawn) | inactive: -0.77% | –
COc1ccc(-c2cc(NC=O)c3ncc(-c4ccc(OC)c(OC)c4)n3c2)cc1OC | inactive: 1.84% | –
Cc1noc(C)c1C(=O)Nc1cccc2ncccc12 | inactive: -8.34% | –
OC(c1ccc(F)c(F)c1)c1ncc(-c2ccc(Cl)cc2)[nH]1 (stereo not drawn) | inactive: 7.4% | –
COc1ccc(/C=N/Nc2nc(-c3cccnc3)nc3ccccc23)cc1OC | inactive: -22.2% | –
CCOC(=O)NC(=O)CSc1nnc(C2CC2)n1Cc1ccco1 | inactive: 3.5% | –
COc1ccc2nc(SC(C(=O)c3ccccc3)c3ccccc3)nc(C)c2c1 (stereo not drawn) | inactive: -14.3% | –
COc1cc2c(=O)n(CCC(=O)NCC3CCCO3)c(=O)n(CC(=O)Nc3ccc(C)cc3C)c2cc1OC (stereo not drawn) | inactive: 12.9% | –
COc1cc(C(=O)N=c2sc3ccccc3n2C)cc(OC)c1OC | inactive: 5.28% | –
Cc1cccc(Cc2nnc(CCC(=O)N3CCCC(CN4CCOCC4)C3)o2)c1 (stereo not drawn) | inactive: -3.47% | –
CCc1c(C(=O)NNC(=S)NC2CCCCC2)csc1C | inactive: -0.49% | –
COC(=O)CCCCCCCCCCN1CCCCC1 | inactive: 5.77% | –
CCN(CC)CC(=O)N1c2ccccc2Oc2c(c(=O)n(C)c(=O)n2C)C1c1cccc([N+](=O)[O-])c1 (stereo not drawn) | inactive: 6.48% | –

SMILES | growth rescue (activation) | Potency
Cc1ccc(-c2csc(Nc3ccc(C(=O)O)cc3)[n+]2Cc2ccccc2)cc1 | inactive: -1.19% | –
Cc1nc(C)c(/C(O)=C/c2nc3ccccc3oc2=O)s1 | inactive: -9.93% | –
CN1CCN(C(=O)c2cnn3c(C(F)(F)F)cc(-c4cccs4)nc23)CC1 | inactive: 1.93% | –
CC(C)N(Cc1cnn(C)c1)Cc1nc(Cc2ccccc2Cl)no1 | inactive: 0.151% | –
CCOC(=O)CNS(=O)(=O)c1cc(-c2nn(C)c(=O)c3ccccc23)ccc1C | inactive: 29.1% | –
Cc1ccc(S(=O)(=O)N2CCN(C(=O)C(C)Cn3nc(C)c(C)c3C)CC2)cc1C (stereo not drawn) | inactive: 8.08% | –
Clc1ccc(CN2C3=NCCCN3c3ccccc32)cc1Cl | inactive: 12.9% | –
CCOc1ccc(N=C2C(=O)Nc3ccc(C)c(Br)c32)cc1 | inactive: 4.29% | –
Cn1c(=N)n(CC(=O)c2ccccc2)c2ccccc21 | inactive: -2.92% | –
Cn1nc(C(=O)Nc2nc3ccccc3[nH]2)ccc1=O | inactive: -5.35% | –
Cc1cccc(NC(=O)C2(C)CC3c4ccccc4C2c2ccccc23)c1 (stereo not drawn) | inactive: 18.2% | –
Cc1c(NC(=O)CSc2ccc(Cl)cc2)c(=O)n(-c2ccccc2)n1C | inactive: -2.13% | –
O=C(NNC(=O)C1CC2CCC1C2)c1sc2ccccc2c1Cl (stereo not drawn) | inactive: 0.231% | –
COCC(=O)N(Cc1cc2cc(OC)ccc2[nH]c1=O)c1ccccc1OC | inactive: -1.18% | –
CN1c2ccccc2Sc2cc(N)ccc21 | inactive: -2.88% | –
CN(CC(=O)N1CCOCC1)C(=O)CSc1nc2ccccc2s1 | inactive: 0.795% | –
CC(=O)Nc1nc(-c2ccccc2)nc(C)c1C(C)=O | inactive: 13.8% | –
CCn1cc(C(=S)N2CCC(C(N)=O)CC2)c2ccccc21 | inactive: 1.29% | –
Cc1ccnc(NC(=O)Cc2ccc(F)cc2)n1 | inactive: 0.0101% | –
Cc1nc(S(=O)(=O)Cc2ccccc2)nc2c1CCC2 | inactive: 8.04% | –
CN(C)CCP(=O)(c1ccccc1)c1ccccc1 | inactive: 1.47% | –
COc1cccc(-c2nc(-c3ccccc3)nc(N3CCN(C)CC3)c2C#N)c1 | inactive: -4.02% | –

SMILES | growth rescue (activation) | Potency
O=C(CNC(=O)c1ccc(-c2ccccc2)cc1)OCc1c(Cl)cccc1Cl | inactive: 2.62% | –
O=[N+]([O-])c1ccc(S(=O)(=O)N2CCSC2c2ccco2)cc1 (stereo not drawn) | inactive: 3.64% | –
Cc1ccc2c(COC(=O)c3ccc(C)c(C)c3)cc(=O)oc2c1 | inactive: -1.88% | –
COc1cccc(-c2cnc3c(NC(C)=O)cc(-c4ccc(S(C)(=O)=O)cc4)cn23)c1 | inactive: 4.97% | –
CCCCOc1cccc(C(=O)Nc2ccc(S(=O)(=O)Nc3cc(C)on3)cc2)c1 | inactive: 14.8% | –
O=C(c1ccc2c(c1)OCO2)C1CCCN(C(=O)C2CCOCC2)C1 (stereo not drawn) | inactive: 1.29% | –
O=C(OCC(=O)C12CC3CC(CC(C3)C1)C2)c1ccccc1O | inactive: -13.7% | –
CCc1cccc(C)c1NC(=O)c1cc(-c2ccncc2)nc2ccccc12 | inactive: -5.18% | –
CCN(CCO)c1ccc(Nc2cc(-c3ccc(-c4ccccc4)cc3)ncn2)cc1 | inactive: 27.4% | –
NC(=O)NCC(=O)N1CCC(C(O)(c2ccccc2)c2ccccc2)CC1 | inactive: 21.3% | –
CCc1c(C(=O)NCCc2cccc(C)c2)[nH]c(C)c1C(C)=O | inactive: 25.9% | –
CCC(=O)NC(Nc1ccccn1)(C(=O)OC)C(F)(F)F (stereo not drawn) | inactive: 11.8% | –
Nc1cc(C(=O)N/N=C/c2cccc([N+](=O)[O-])c2)n[nH]c1=O | inactive: 13.6% | –
Cc1ccc(S(=O)(=O)Nc2ccncc2)c(C)c1N(C)S(=O)(=O)c1ccc(F)cc1 | inactive: 20.1% | –
COC(=O)[C@H](CC(C)C)NC(=O)CCc1nnc(COc2ccccc2)o1 | inactive: -13.2% | –
O=C(Nc1ccccc1)c1ccc(-c2ccc([N+](=O)[O-])cc2)o1 | inactive: 3.36% | –
CCCCN(C(=O)C1CCCC1)c1c(N)n(Cc2ccccc2)c(=O)[nH]c1=O | inactive: -6.83% | –
Cc1ccccc1N(C(=O)CNC(=O)c1ccco1)C(C(=O)NC1CCCC1)c1ccncc1 (stereo not drawn) | inactive: 0.587% | –
COC(=O)C1C(c2ccc(OC)cc2)NC(=O)NC1(O)C(F)(F)Cl (stereo not drawn) | inactive: -1.03% | –
CCN(CC(=O)Nc1ccccc1C(F)(F)F)C(=O)Cc1ccccc1 | inactive: 17.9% | –
